# Assay results from the BET-seq Pho4 binding data (Le et al. 2018).
# The list shows a part of the results. These are noisy estimates, calculated here from bound and input reads.
# Target: T1, Pho4 (S. cerevisiae) (UniProt P07270)
# T1 sequence: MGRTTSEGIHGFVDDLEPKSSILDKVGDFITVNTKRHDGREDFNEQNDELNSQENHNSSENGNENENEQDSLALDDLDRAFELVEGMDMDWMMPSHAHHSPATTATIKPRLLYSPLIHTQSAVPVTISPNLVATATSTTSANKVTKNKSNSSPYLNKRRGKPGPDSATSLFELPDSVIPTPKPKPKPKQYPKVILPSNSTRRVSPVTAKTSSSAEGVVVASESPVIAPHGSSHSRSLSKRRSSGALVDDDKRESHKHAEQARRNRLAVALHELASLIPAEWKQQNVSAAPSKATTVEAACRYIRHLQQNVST
# Test: relative binding free energy (BET-seq); higher = weaker binding
# Conditions: reference: library average
row,Sequence,relative binding free energy
1,AATGGCACGTGAATGT,0.01 kcal/mol
2,TAATTCACGTGGTGTG,0.13 kcal/mol
3,GTTGACACGTGATTGT,0.23 kcal/mol
4,TTCTTCACGTGTCGTG,0.36 kcal/mol
5,ATGTTCACGTGCGGAA,0.25 kcal/mol
6,CCTTTCACGTGTGTTG,0.28 kcal/mol
7,AGGGGCACGTGAGGGG,0.22 kcal/mol
8,TCTGTCACGTGGATAT,0.05 kcal/mol
9,TATATCACGTGGGGAG,0.11 kcal/mol
10,TTATTCACGTGTGAGG,0.26 kcal/mol
11,TGGGCCACGTGCGGGG,-0.19 kcal/mol
12,GTTTGCACGTGAGTTA,0.22 kcal/mol
13,ATAGTCACGTGGTGGG,0.07 kcal/mol
14,TTGGGCACGTGTTGGG,-0.08 kcal/mol
15,TAATTCACGTGCATTT,0.2 kcal/mol
16,TGTTTCACGTGTTGGA,0.29 kcal/mol
17,GGTACCACGTGGAGGG,-0.21 kcal/mol
18,TTTTACACGTGCAGGT,0.23 kcal/mol
19,TATGTCACGTGGGGAC,-0.03 kcal/mol
20,TAAAGCACGTGTGTAA,0.01 kcal/mol
21,TGAAGCACGTGGGTCG,-0.15 kcal/mol
22,GGGAACACGTGCTGTA,0.04 kcal/mol
23,TTAGACACGTGGTGTT,0.03 kcal/mol
24,ATGGGCACGTGAGGTC,0.15 kcal/mol
25,AGGCGCACGTGGGCGA,-0.21 kcal/mol
26,GCAGACACGTGGTGGT,0.12 kcal/mol

row,Sequence,relative binding free energy
1,AAGTGCACGTGATTGA,-0.01 kcal/mol
2,AGGAGCACGTGATTTG,0.08 kcal/mol
3,TTGTGCACGTGTTAAA,0.1 kcal/mol
4,GGAGGCACGTGTTTGA,-0.15 kcal/mol
5,TGTCGCACGTGGGCTT,-0.27 kcal/mol
6,TTTTGCACGTGTTCGG,0.11 kcal/mol
7,AGTCGCACGTGGTAAG,-0.13 kcal/mol
8,TTTGTCACGTGATTTG,0.2 kcal/mol
9,CAATTCACGTGGTTAG,0.28 kcal/mol
10,AGTTGCACGTGACGAG,0.12 kcal/mol
11,CGGCTCACGTGGGTTT,0.15 kcal/mol
12,GTTGACACGTGCGGGT,-0.11 kcal/mol
13,CTGTGCACGTGGGCTG,-0.21 kcal/mol
14,GTGTCCACGTGCGTGA,0.02 kcal/mol
15,GGTGTCACGTGGTGGC,0.09 kcal/mol
16,GTGCGCACGTGTATGT,0.07 kcal/mol
17,AGTCGCACGTGCAGGT,-0.08 kcal/mol
18,ATAGGCACGTGTGTCA,-0.06 kcal/mol
19,GATATCACGTGGGGTT,0.02 kcal/mol
20,CGGGGCACGTGGGTCG,-0.24 kcal/mol
21,AGTGGCACGTGGAGCG,-0.1 kcal/mol
22,TTAGACACGTGTATGA,-0.01 kcal/mol
23,CTTAGCACGTGTGTGA,0.04 kcal/mol
24,ATTTCCACGTGGGTAG,-0.07 kcal/mol
25,TCGCTCACGTGGGGGG,0.12 kcal/mol
26,ATAGTCACGTGTCGGA,0.05 kcal/mol

row,Sequence,relative binding free energy
1,TTTAACACGTGGGCTT,-0.17 kcal/mol
2,GCTGACACGTGGATGG,0.18 kcal/mol
3,AGCCGCACGTGAGGGG,0.12 kcal/mol
4,TGGGACACGTGTTTCT,0.05 kcal/mol
5,GCGGGCACGTGAGAGG,0.3 kcal/mol
6,CATATCACGTGGTGTT,0.01 kcal/mol
7,CCTGTCACGTGGTGGT,0.03 kcal/mol
8,AATTCCACGTGGAGGG,0.11 kcal/mol
9,TGAAACACGTGGTGCT,-0.09 kcal/mol
10,CTGATCACGTGTGTAT,0.11 kcal/mol
11,GATCTCACGTGTGGGT,0.2 kcal/mol
12,GAAGTCACGTGATGGT,0.24 kcal/mol
13,GATGTCACGTGGGGTA,-0.07 kcal/mol
14,TAGCGCACGTGTAGGG,-0.05 kcal/mol
15,CATTTCACGTGTATAT,0.14 kcal/mol
16,GTTAACACGTGGCGGT,0.01 kcal/mol
17,TTATTCACGTGAGGTT,0.38 kcal/mol
18,AAGGACACGTGGGGGA,-0.14 kcal/mol
19,GGAGGCACGTGTTCTT,0.05 kcal/mol
20,CTTGGCACGTGGGTCA,-0.27 kcal/mol
21,TTCGTCACGTGTAGTG,0.13 kcal/mol
22,ATGTGCACGTGTCCGG,-0.05 kcal/mol
23,TGGGTCACGTGGAGGG,0.13 kcal/mol
24,TTGTGCACGTGAAGAG,0.22 kcal/mol
25,CGTTACACGTGCTGTT,0.05 kcal/mol
26,TATGGCACGTGCGAGT,-0.11 kcal/mol

row,Sequence,relative binding free energy
1,ATTGACACGTGAATAG,0.18 kcal/mol
2,GTCTTCACGTGTGGGC,0.37 kcal/mol
3,GATGGCACGTGCAGTG,-0.03 kcal/mol
4,CGTTGCACGTGGGAAT,-0.22 kcal/mol
5,GGTTGCACGTGTAGTT,0.15 kcal/mol
6,TGCTCCACGTGGTGTG,-0.11 kcal/mol
7,AGTTTCACGTGAGGGG,0.36 kcal/mol
8,TAATACACGTGAGGGG,0.32 kcal/mol
9,ACATGCACGTGGGAGT,-0.27 kcal/mol
10,TGTGACACGTGATGAG,0 kcal/mol
11,CTAGGCACGTGGGAGT,-0.11 kcal/mol
12,GGTGCCACGTGTGGGA,0.01 kcal/mol
13,TAGCGCACGTGTGGTT,-0.03 kcal/mol
14,CGGTCCACGTGGAGTG,-0.04 kcal/mol
15,CCGTGCACGTGGAGTG,-0.02 kcal/mol
16,ATTTTCACGTGATTAA,0.21 kcal/mol
17,TTGGGCACGTGACGGG,0.01 kcal/mol
18,ACTGTCACGTGCTGGG,-0.12 kcal/mol
19,TTCGGCACGTGCGGCG,-0.11 kcal/mol
20,GCGGTCACGTGCGTTT,0.04 kcal/mol
21,ACTAGCACGTGTTTGT,-0.1 kcal/mol
22,AAGTGCACGTGGAAGT,0.02 kcal/mol
23,CGAGGCACGTGATTGT,-0.07 kcal/mol
24,TTAGGCACGTGAGGAT,0.12 kcal/mol
25,GATGACACGTGGTTGT,0.06 kcal/mol
26,GTGCTCACGTGGCGTT,0.15 kcal/mol

row,Sequence,relative binding free energy
1,AGACACACGTGTTGGG,0.12 kcal/mol
2,TTCAACACGTGGGATG,0.09 kcal/mol
3,TGCGACACGTGGTATT,-0.06 kcal/mol
4,GGTGGCACGTGGTTAT,-0.01 kcal/mol
5,GTCGGCACGTGTGTTT,-0.08 kcal/mol
6,AGATTCACGTGTATTT,0.24 kcal/mol
7,TGGCGCACGTGATGGT,0.13 kcal/mol
8,TATCTCACGTGTGTTA,0.13 kcal/mol
9,ATTGCCACGTGGGTTG,-0.19 kcal/mol
10,GGTAGCACGTGTATTG,0 kcal/mol
11,ATTGTCACGTGGTTGC,-0.03 kcal/mol
12,CCTTGCACGTGGGATG,-0.08 kcal/mol
13,CGGGTCACGTGGTGCG,0 kcal/mol
14,AATTACACGTGGTTAG,0.03 kcal/mol
15,GAGCGCACGTGTAGGC,0.06 kcal/mol
16,CGATTCACGTGTTGAT,0.24 kcal/mol
17,TTCATCACGTGGAGTT,0.07 kcal/mol
18,GTTCTCACGTGGGTTT,0.09 kcal/mol
19,CTTGACACGTGGGGAT,-0.04 kcal/mol
20,CGCTGCACGTGTAAGG,0.07 kcal/mol
21,TCGTGCACGTGTTTAT,-0.03 kcal/mol
22,ATCATCACGTGGAGTG,0.2 kcal/mol
23,GAGTACACGTGGTGTA,0.06 kcal/mol
24,TTTATCACGTGAGCAA,0.47 kcal/mol
25,TTTAACACGTGATGCG,0 kcal/mol
26,CTATTCACGTGTTAAG,0.15 kcal/mol

row,Sequence,relative binding free energy
1,TGACTCACGTGAGCGG,0.35 kcal/mol
2,ACTGGCACGTGTGTAT,0.14 kcal/mol
3,TTACTCACGTGTATGT,0.09 kcal/mol
4,TTGGACACGTGAGGGT,0.18 kcal/mol
5,TAGTGCACGTGCTGCT,-0.06 kcal/mol
6,GTGGTCACGTGGACTT,0.16 kcal/mol
7,TTTATCACGTGCGTCT,0.11 kcal/mol
8,ATCGTCACGTGGTAGT,0.05 kcal/mol
9,AGCTTCACGTGGTTAT,0.19 kcal/mol
10,TTAAGCACGTGCAGGT,-0.22 kcal/mol
11,ATTATCACGTGTCTAT,0.12 kcal/mol
12,TGTTTCACGTGAACAT,0.31 kcal/mol
13,CATCTCACGTGTGTGG,0.31 kcal/mol
14,GTTCACACGTGAATGG,0.39 kcal/mol
15,TATGTCACGTGGGTAC,-0.12 kcal/mol
16,GGCGGCACGTGGCCGT,-0.11 kcal/mol
17,TTTTTCACGTGTAAAT,0.31 kcal/mol
18,ATGTGCACGTGGCGGA,-0.08 kcal/mol
19,GGTTACACGTGTTCTG,0.05 kcal/mol
20,TCGGACACGTGAGTAG,0.29 kcal/mol
21,GGTAACACGTGGGGGC,-0.08 kcal/mol
22,TAGTTCACGTGGTTAA,0.37 kcal/mol
23,GTTTGCACGTGGTACT,0.03 kcal/mol
24,TGCGACACGTGGTGGA,0.04 kcal/mol
25,TAGATCACGTGCTTGG,0.12 kcal/mol
26,GAGCCCACGTGTGGGT,0.18 kcal/mol

row,Sequence,relative binding free energy
1,GGTGCCACGTGGGGGT,-0.14 kcal/mol
2,TGAGTCACGTGGGGAA,-0.01 kcal/mol
3,TGACACACGTGGTGGA,-0.04 kcal/mol
4,TTAATCACGTGATGGA,0.2 kcal/mol
5,TAGGACACGTGTTGCG,-0.11 kcal/mol
6,TATGACACGTGTCGGG,0.06 kcal/mol
7,CATGGCACGTGGTTGT,-0.16 kcal/mol
8,GATTTCACGTGTTTGG,0.34 kcal/mol
9,CGTGACACGTGAGGAG,0.28 kcal/mol
10,AGTGGCACGTGCTCGG,-0.25 kcal/mol
11,TGGAACACGTGGGCAT,-0.05 kcal/mol
12,AGGGTCACGTGCTGCG,0.02 kcal/mol
13,TGTCACACGTGGTTTT,0.04 kcal/mol
14,GTGATCACGTGTATCT,0.33 kcal/mol
15,GGGATCACGTGTAGGG,0.21 kcal/mol
16,TTGCACACGTGTGGAG,0.04 kcal/mol
17,ATTTGCACGTGCAGGA,-0.11 kcal/mol
18,TGTATCACGTGGACTG,0.1 kcal/mol
19,AGTATCACGTGGCGCG,0.1 kcal/mol
20,GCTTGCACGTGGTTAA,0.11 kcal/mol
21,TTGTACACGTGTTCGT,-0.01 kcal/mol
22,TCTATCACGTGGTTGG,0.02 kcal/mol
23,GGTGGCACGTGTTTTC,-0.04 kcal/mol
24,ATTTACACGTGTTGCT,0.1 kcal/mol
25,CTATTCACGTGGATTT,0.18 kcal/mol
26,GTATACACGTGTCTGG,0.02 kcal/mol

row,Sequence,relative binding free energy
1,TTTTGCACGTGCAGGA,-0.02 kcal/mol
2,AGGCGCACGTGTAAGG,-0.04 kcal/mol
3,CGCGGCACGTGAGGGT,0.02 kcal/mol
4,GGTAACACGTGAAGGA,0.28 kcal/mol
5,TTTATCACGTGTCAGA,0.21 kcal/mol
6,TGTAACACGTGGCAGG,0.01 kcal/mol
7,AGTATCACGTGGGTGC,0.03 kcal/mol
8,GGTTCCACGTGCGTGA,0.07 kcal/mol
9,GTTTTCACGTGATGTA,0.29 kcal/mol
10,GGGGACACGTGTGGCG,0.08 kcal/mol
11,CGTGTCACGTGGTTGC,-0.05 kcal/mol
12,TGTTACACGTGTTCGT,0.1 kcal/mol
13,AGTTGCACGTGTGGCA,0.06 kcal/mol
14,TATGACACGTGGACGG,-0.06 kcal/mol
15,GGTAACACGTGTTGGT,0.08 kcal/mol
16,GTATGCACGTGACGGC,0.2 kcal/mol
17,TCGTTCACGTGGGAGC,0.27 kcal/mol
18,GCGTTCACGTGGGATT,0.24 kcal/mol
19,GGAGGCACGTGAATAT,0.21 kcal/mol
20,GTTAGCACGTGGTAGG,-0.03 kcal/mol
21,GAGGGCACGTGTATTT,0.03 kcal/mol
22,ATCTGCACGTGTGGAT,-0.07 kcal/mol
23,CGCTGCACGTGTGTGC,0.08 kcal/mol
24,GATGTCACGTGGAAAT,0.3 kcal/mol
25,TGTTACACGTGAATGT,0.24 kcal/mol
26,GGTTCCACGTGAAGTG,0.3 kcal/mol

row,Sequence,relative binding free energy
1,CATGGCACGTGTTAGA,-0.07 kcal/mol
2,TGCATCACGTGGTCGG,-0.06 kcal/mol
3,GCAGTCACGTGGGTTT,0.15 kcal/mol
4,ATGTTCACGTGGATGA,0.35 kcal/mol
5,GCTTGCACGTGGGCAT,-0.11 kcal/mol
6,AGGTGCACGTGATGGC,0.05 kcal/mol
7,CTGGGCACGTGGCACG,-0.01 kcal/mol
8,CGGGTCACGTGATAGT,0.11 kcal/mol
9,TCAGTCACGTGGGCTT,0.06 kcal/mol
10,GAGTGCACGTGCGCGG,-0.07 kcal/mol
11,TGTAACACGTGTGGCT,0.17 kcal/mol
12,AAGTGCACGTGCGTTG,-0.08 kcal/mol
13,TGATTCACGTGAGTAA,0.13 kcal/mol
14,GTAATCACGTGGAGTT,0.32 kcal/mol
15,TTATGCACGTGGGAAG,-0.1 kcal/mol
16,CTTGCCACGTGGTGTA,-0.15 kcal/mol
17,ATTGACACGTGGTAGG,-0.01 kcal/mol
18,GGGCGCACGTGCAGGT,-0.23 kcal/mol
19,TTAATCACGTGATTGC,0.19 kcal/mol
20,TTGTACACGTGGATAG,0.04 kcal/mol
21,GGGAGCACGTGTATGA,-0.03 kcal/mol
22,TTGAGCACGTGGGTTC,-0.26 kcal/mol
